{"source": "PubChem BioAssay AID588579", "about": "(National Center for Advancing Translational Sciences (NCATS), 2011)", "note": "Hit rate of the full screen: of about 400,000 compounds, about 2,200 (0.55%) were called active. Inconclusive results, whose numbers are uncertain, are shown with a selection of clear calls. The call rests on the fitted dose curve; in most records, active means well fitted inhibition curve with a large enough effect; inconclusive means small, poorly fitted or top-dose-only effect, or another doubt; inactive means no such curve, though single readings can be large or run the other way. Potencies beside an inconclusive call are fits to weak or partial responses and may not hold up. Some compounds were tested as several samples or in several runs, with calls that do not always agree. On the % scale 0 is the no-effect control and ±100 the full control effect; potency means the concentration at half of the fitted maximal effect; tags describe the fitted curve by direction and shape."}
{"biological_target": "DNA polymerase kappa (Homo sapiens) (UniProt Q9UBT6)", "sequence (Q9UBT6 whole entry, looked up)": "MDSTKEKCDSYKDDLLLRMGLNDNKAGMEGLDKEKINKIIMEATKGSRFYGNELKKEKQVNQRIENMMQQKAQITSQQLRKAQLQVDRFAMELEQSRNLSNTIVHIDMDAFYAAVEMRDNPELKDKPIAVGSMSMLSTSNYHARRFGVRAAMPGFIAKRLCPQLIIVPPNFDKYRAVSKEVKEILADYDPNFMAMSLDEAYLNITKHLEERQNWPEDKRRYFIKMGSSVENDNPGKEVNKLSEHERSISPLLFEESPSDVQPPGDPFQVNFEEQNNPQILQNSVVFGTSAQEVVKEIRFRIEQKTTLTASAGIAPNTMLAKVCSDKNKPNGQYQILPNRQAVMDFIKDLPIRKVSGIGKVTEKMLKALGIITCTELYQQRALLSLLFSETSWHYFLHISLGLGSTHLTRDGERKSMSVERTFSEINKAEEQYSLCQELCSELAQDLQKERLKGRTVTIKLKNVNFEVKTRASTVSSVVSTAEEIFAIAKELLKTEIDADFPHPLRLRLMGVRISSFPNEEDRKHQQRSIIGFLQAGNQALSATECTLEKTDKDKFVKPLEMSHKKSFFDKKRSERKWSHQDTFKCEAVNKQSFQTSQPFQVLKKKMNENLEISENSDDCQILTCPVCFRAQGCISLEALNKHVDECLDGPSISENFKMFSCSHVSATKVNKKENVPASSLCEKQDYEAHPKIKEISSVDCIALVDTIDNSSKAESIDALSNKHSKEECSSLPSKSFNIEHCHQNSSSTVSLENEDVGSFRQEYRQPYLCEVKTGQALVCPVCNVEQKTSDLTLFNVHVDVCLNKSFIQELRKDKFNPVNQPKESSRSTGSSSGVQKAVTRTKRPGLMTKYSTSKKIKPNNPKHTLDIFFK", "assay": "qHTS for Inhibitors of Polymerase Kappa", "conditions": "purified Pol kappa, fluorescent DNA synthesis assay, 10 min; series mostly up to 107 µM; activity, negative = inhibition: at the top concentration", "outline": "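10 nM Pol kappa was preincubated with compounds for 15 min at room temperature. Reaction started with 50 nM (final) substrate. Fluorescence read kinetically at 0 and 10 min.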"}
{"smiles": "N#Cc1ccsc1NC(=O)CN1CCN(c2ccc(O)cc2)CC1", "Potency": "inconclusive: 89.1 µM [inhibitor, partial curve, poor fit]"}
{"smiles": "C=C(C)COc1ccc(-c2ncncc2-c2ccccc2OC)c(O)c1", "Potency": "inconclusive: 89.1 µM [inhibitor, single point]"}
{"smiles": "COc1ccc(C)cc1NC(=O)Cn1c(=O)cc(C)c2c(C)nn(C)c21", "activity, negative = inhibition": "inactive: -11.6%"}
{"smiles": "COc1ccc(C(=O)N/C(=C\\c2cn(C)c3ccccc23)C(=O)OCC(C)C)cc1", "Potency": "inconclusive: 89.1 µM [inhibitor, single point]"}
{"smiles": "COc1cccc(CN(C(=O)/C=C/c2ccco2)C2CCS(=O)(=O)C2)c1", "note": "(configuration not stated)", "Potency": "active: 89.1 µM"}
{"smiles": "C#Cc1ccc([C@H]2C=C(C(=O)OCC=C)O[C@@H](OCc3ccc(CO)cc3)C2)cc1", "Potency": "inconclusive: 79.4 µM [inhibitor, partial curve, poor fit]"}
{"smiles": "O=[N+]([O-])c1cc(CN(CCO)CCO)ccc1O", "Potency": "inconclusive: 89.1 µM [inhibitor, single point]"}
{"smiles": "CCOc1ccc(NCc2nc3ccccc3n2CCOc2ccccc2)cc1", "Potency": "inconclusive: 89.1 µM [inhibitor, single point]"}
{"smiles": "C/C=C(\\C)C(=O)NCCN1C2=NC[C@H](Cc3ccc(O)cc3)N2C[C@H]1Cc1ccc(O)cc1", "activity, negative = inhibition": "inactive: 0%"}
{"smiles": "CCOc1ccc(C(=O)c2cn(CC(=O)Nc3ccc(F)cc3)c3cc4c(cc3c2=O)OCO4)cc1", "activity, negative = inhibition": "inactive: -22.6%"}
{"smiles": "Nc1c(Cl)cc(C2=NCCn3nc4cc(C(F)(F)F)ccc4c32)cc1Cl", "activity, negative = inhibition": "inactive: -0.424%"}
{"smiles": "Cc1cc(C(=O)CSc2nnc(-c3ccco3)o2)c(C)n1Cc1ccco1", "activity, negative = inhibition": "inactive: -19.7%"}
{"smiles": "Cc1ccc(NC(=O)COC(=O)CC2CC3CCC2C3)cc1S(=O)(=O)N1CCOCC1", "note": "(configuration not stated)", "Potency": "inconclusive: 89.1 µM [inhibitor, single point]"}
{"smiles": "Cc1cnc(CNc2ncnc3ccc(-c4ccc5c(c4)OCO5)cc23)cn1", "Potency": "inconclusive: 22.4 µM [inhibitor, single point]"}
{"smiles": "O=C(c1ccc(CS(=O)(=O)c2ccccc2)o1)N1CCN(c2ccccc2)CC1", "Potency": "active: 79.4 µM"}
{"smiles": "COc1ccc(CCN2CC(C(=O)NCc3ccco3)CC2=O)cc1OC", "note": "(configuration not stated)", "Potency": "inconclusive: 100 µM [inhibitor, single point]"}
{"smiles": "COC(=O)CCC(=O)OC1(C)C(=O)C2=COC(c3ccc(OC)cc3)=CC2=C(Br)C1=O", "note": "(configuration not stated)", "Potency": "active: 25.1 µM"}
{"smiles": "CCOc1ccc(C(=O)N/N=C/c2ccc(-c3ccc(S(=O)(=O)Nc4ncccn4)cc3)o2)cc1", "Potency": "inconclusive: 56.2 µM [inhibitor, partial curve, poor fit]"}
{"smiles": "CCc1cccc(-n2c(C)nc3c(cnn3-c3ccc(C)c(C)c3)c2=O)c1", "activity, negative = inhibition": "inactive: -5.44%"}
{"smiles": "COC(=O)c1ccccc1NC(=O)c1ccc2nccnc2c1", "Potency": "inconclusive: 89.1 µM [inhibitor, single point]"}
{"smiles": "CC[N+](CC)(CC)c1ccc(/C=C/c2ccnc3ccccc23)cc1", "Potency": "active: 44.7 µM"}
{"smiles": "Cc1ccc(-c2cc(C(=O)N/N=C/c3c(C)nn(-c4ccccc4)c3C)n[nH]2)s1", "Potency": "inconclusive: 89.1 µM [inhibitor, single point]"}
{"smiles": "CC(C1OC(C)(C)C(O)C1O)C1CC[C@@]2(C)C3=CCC4C(C)(C)C(=O)CC[C@]4(C)C3CC[C@@]12C", "note": "(some centres not stated)", "activity, negative = inhibition": "inactive: -8.1% [at 60.1 µM]"}
{"smiles": "Cc1cc(C)n2nc(C(=O)OCC(=O)c3cc(C)n(C)c3C)nc2n1", "Potency": "inconclusive: 79.4 µM [inhibitor, partial curve]"}
{"smiles": "Cc1nc2ccc(S(=O)(=O)CCC(=O)Nc3ccc(C)c(C)c3)cc2s1", "Potency": "inconclusive: 89.1 µM [inhibitor, single point]"}
{"smiles": "COc1cc(/C=C2\\CCc3c2nc2ccccc2c3C(=O)O)cc(OC)c1OC", "Potency": "active: 44.7 µM"}
{"smiles": "O=C(O)c1ccc(COc2ccccc2/C=C2\\NC(=O)N(Cc3ccccc3)C2=O)cc1", "activity, negative = inhibition": "inactive: -17.6%"}
{"smiles": "Cc1ccc2oc(-c3cccc(NC(=S)NC(=O)/C=C/c4ccco4)c3)nc2c1", "Potency": "inconclusive: 79.4 µM [inhibitor, partial curve]"}
{"smiles": "CC(C(=O)O)N1C(=O)/C(=C/C=C/c2ccco2)SC1=S", "note": "(configuration not stated)", "Potency": "active: 1.26 µM"}
{"smiles": "CCNC(=O)CC1C(=O)N(c2ccc(F)cc2)C(=O)N1Cc1ccc(OC)cc1", "note": "(configuration not stated)", "activity, negative = inhibition": "inactive: -18.6%"}
{"smiles": "O=C(O)C1Nc2c(C(=O)N3CCOCC3)cccc2C2C=CCC12", "note": "(configuration not stated)", "Potency": "active: 44.7 µM"}
{"smiles": "CN(C)CCCn1c2c3ccccc3ccc2c2oc(=O)c3ccccc3c21", "Potency": "active: 50.1 µM"}
{"smiles": "Cc1cc(=O)oc2cc(OCC(=O)N3c4ccccc4NC(=O)C3(C)C)ccc12", "Potency": "inconclusive: 79.4 µM [inhibitor, single point]"}
{"smiles": "COc1cc(OC)cc(-c2nc3nc(C)c(CCC(=O)Nc4ccc(F)cc4F)c(C)n3n2)c1", "Potency": "inconclusive: 89.1 µM [inhibitor, single point]"}
{"smiles": "O=C1NC(=Nc2ccc3ccccc3c2)S/C1=C/c1ccco1", "Potency": "inconclusive: 79.4 µM [inhibitor, partial curve]"}
{"smiles": "O=C1C(c2cc(=O)c3ccccc3[nH]2)=C(O)c2ccccc21", "Potency": "inconclusive: 89.1 µM [inhibitor, partial curve]"}
{"smiles": "COC(=O)c1ccccc1NC(=O)c1cc2ncc(Br)cn2n1", "activity, negative = inhibition": "inactive: -20.3%"}
{"smiles": "Cc1ccccc1NC(=O)CSc1[nH]c(=O)cc(C)c1C#N", "Potency": "inconclusive: 79.4 µM [inhibitor, single point]"}
{"smiles": "CCCCN(C(=O)Cn1ncc(Cl)c(Cl)c1=O)c1c(N)n(CC(C)C)c(=O)[nH]c1=O", "Potency": "active: 70.8 µM"}
{"smiles": "C#CCOCCOCCOCCNc1nc(N2CCN(C(=O)Cn3cc(CCCCN)nn3)CC2)nc(N2CCN(C(=O)Cn3cc(CCCCN)nn3)CC2)n1", "Potency": "inconclusive: 79.4 µM [inhibitor, partial curve]"}
{"smiles": "C#Cc1ccc([C@H]2C=C(C(=O)OCC=C)O[C@@H](OCCCCO)C2)cc1", "Potency": "inconclusive: 79.4 µM [inhibitor, partial curve]"}
{"smiles": "O=C(OCc1nnc(-c2ccc(Cl)cc2)o1)C12CC3CC(CC(O)(C3)C1)C2", "Potency": "inconclusive: 89.1 µM [inhibitor, single point]"}
{"smiles": "Cc1cc(C(=O)Nc2ccc(S(=O)(=O)Nc3onc(C)c3C)cc2)c(C)o1", "Potency": "inconclusive: 89.1 µM [inhibitor, single point]"}
{"smiles": "Cc1cc(C)c2c(N)c3cccc(C)c3nc2n1", "Potency": "inconclusive: 89.1 µM [inhibitor, single point]"}
{"smiles": "O=C(N/N=C\\c1ccc([N+](=O)[O-])o1)c1ccc(O)cc1", "Potency": "inconclusive: 6.7 µM [inhibitor, single point]"}
{"smiles": "CC(C(=O)Nc1ccc(O)c(C(=O)O)c1)N1C(=O)/C(=C/c2cccs2)SC1=S", "note": "(configuration not stated)", "Potency": "inconclusive: 89.1 µM [inhibitor, single point]"}
{"smiles": "CCOc1ccc(Cc2c(C)[nH]c3ccc(C(=O)O)cc3c2=S)cc1", "Potency": "inconclusive: 100 µM [inhibitor, single point]"}
{"smiles": "C[N+]1(CC(=O)c2ccc(Oc3ccccc3)cc2)CCOCC1", "activity, negative = inhibition": "inactive: 4.1%"}
{"smiles": "O=C1/C(=C\\c2ccc(O)c(O)c2)C(c2ccccc2)=NN1c1ccccc1", "Potency": "active: 70.8 µM"}
{"smiles": "COc1cccc(-c2ccc3ncnc(NCc4ccccc4)c3c2)c1", "activity, negative = inhibition": "inactive: -14.7% [at 60.1 µM]"}
{"smiles": "COc1cc(/C=C2\\CC/C(=C\\c3cc(OC)c(O)c(OC)c3)C2=O)cc(OC)c1O", "Potency": "active: 10 µM"}
{"smiles": "COc1cc(OC)cc(-c2c(C#Cc3ccsc3)c3cc(-c4ccc5cc[nH]c5c4)ccc3n2C)c1", "Potency": "inconclusive: 89.1 µM [inhibitor, partial curve, poor fit]"}
{"smiles": "O=C(COc1cccnc1[N+](=O)[O-])Nc1cccc(S(=O)(=O)N2CCOCC2)c1", "Potency": "inconclusive: 89.1 µM [inhibitor, partial curve, poor fit]"}
{"smiles": "CC1CCCC(C)N1C(=O)COC(=O)COc1ccccc1C#N", "note": "(configuration not stated)", "Potency": "inconclusive: 89.1 µM [inhibitor, single point]"}
{"smiles": "CCOC(=O)c1nn(-c2ccccc2)c(=O)c2c(NC(C)=O)scc12", "activity, negative = inhibition": "inactive: -0.43%"}
{"smiles": "COC(=O)c1ccc(-n2nnnc2SCc2nn[nH]n2)cc1", "activity, negative = inhibition": "inactive: -1.41%"}
{"smiles": "Cc1ccc(/C=c2\\sc3n(c2=O)CN(c2cccc(Br)c2)CN=3)o1", "activity, negative = inhibition": "inactive: -6.72%"}
{"smiles": "C=C1c2cccc(O)c2C(O)=C2C(=O)[C@@]3(O)C(O)=C(C(N)=O)C(=O)[C@@H](N(C)C)[C@@H]3[C@@H](O)[C@H]12", "Potency": "active: 1.8 µM"}
{"smiles": "CC1(OC(=O)C2CCCC2)C(=O)C=C2C=C3CCCCN3C=C2C1=O", "note": "(configuration not stated)", "Potency": "inconclusive: 56.2 µM [inhibitor, partial curve]"}
{"smiles": "Cc1ccc2c(CC(=O)Nc3c(C(=O)c4ccc(C)c(F)c4)oc4ccccc34)coc2c1", "Potency": "inconclusive: 89.1 µM [inhibitor, single point]"}
{"smiles": "CSc1ccc(CCNC(=O)CCn2c(=O)c3cccn3c3ccc(F)cc32)cc1", "activity, negative = inhibition": "inactive: 4.49%"}
{"smiles": "CN(C)CCCN(C(=O)c1cc2cc([N+](=O)[O-])ccc2s1)c1nc2cc3c(cc2s1)OCCO3", "Potency": "inconclusive: 20 µM [inhibitor, partial curve, poor fit]"}
{"smiles": "COc1cccc(/C(O)=C2/C(=O)C(=O)N(Cc3cccnc3)C2c2ccco2)c1", "note": "(configuration not stated)", "activity, negative = inhibition": "inactive: -8.4%"}
{"smiles": "CN(C)CCNc1ccc(CO)c2sc3ccc(O)cc3c(=O)c12", "Potency": "inconclusive: 79.4 µM [inhibitor, partial curve]"}
{"smiles": "COc1ccc(C2=NN(C(=O)c3ccccc3)C(c3ccccc3)C2)c(O)c1", "note": "(configuration not stated)", "Potency": "inconclusive: 100 µM [inhibitor, single point]"}
{"smiles": "CCC(Cc1c(I)cc(I)c(O)c1I)C(=O)O", "note": "(configuration not stated)", "Potency": "inconclusive: 11.2 µM [inhibitor, single point]"}
{"smiles": "c1ccc(-c2cc(-c3nn4c(-c5ccco5)nnc4s3)c3ccccc3n2)cc1", "Potency": "inconclusive: 89.1 µM [inhibitor, partial curve, poor fit]"}
